This is an account of results in patent publication US11178870B2 (priority 2017, dated 2021).

One assay relates to Magnaporthe grisea. It is filed as in vivo. As to conditions: Table 7, Test A.
The test system of a further assay is Phytophthora infestans. It is filed as in vivo. The following applies: Table 7, Test F.
Assay [1] has as its system Colletotrichum orbiculare. As to conditions: 250 ppm sprayed (2.5 ml/pot) before inoculation; assessed 6 to 10 days after inoculation.

On to `CCn1c(-c2ccccc2C)c(-n2ncc(C)c2Cl)cc(Cl)c1=O` [Compound 244], for which the “control value, Test A (blast on rice)” value with Magnaporthe grisea is reported as “H (H shows the control value more than 50%)”. In addition, the “control value, Test F (late blight on tomato)” value (“control value, Test F” for short) in the assay on Phytophthora infestans was “L (L shows the control value of 50% or less)”. In addition, the “control value, Test H (anthracnose on cucumber)” value (shortened to “control value, Test H”) in assay [1] was “H (H shows the control value more than 50%)”.

As for `O=c1c(Cl)cc(-n2cc(Cl)cn2)c(-c2ccccc2F)n1CC(F)F` [Compound 277], in the assay on Magnaporthe grisea, the “control value, Test A (blast on rice)” value is given as “H (H shows the control value more than 50%)”. In addition, the “control value, Test F” value in the assay with Phytophthora infestans was “L (L shows the control value of 50% or less)”. The “control value, Test H” value in assay [1] is recorded as “L (L shows the control value of 50% or less)”.

As to `Cc1cnn(-c2ccc(=O)n(CC(F)F)c2-c2c(F)cccc2F)c1` [Compound 186], the “control value, Test A (blast on rice)” value with Magnaporthe grisea is on record as “H (H shows the control value more than 50%)”. Besides, in the assay with Phytophthora infestans, the “control value, Test F” value is “L (L shows the control value of 50% or less)”. Also, the “control value, Test H” value in assay [1] is on record as “H (H shows the control value more than 50%)”.

As to `Cc1cnn(-c2cc(Cl)c(=O)n(C)c2-c2c(F)cccc2F)c1Cl` [Compound 187], the “control value, Test A (blast on rice)” value in the assay on Magnaporthe grisea is given as “H (H shows the control value more than 50%)”. The “control value, Test F” value in the assay with Phytophthora infestans is “L (L shows the control value of 50% or less)”. In addition, in assay [1], the “control value, Test H” value is on record as “H (H shows the control value more than 50%)”.

As to `CCn1c(-c2c(F)cccc2Br)c(-n2cc(Cl)cn2)cc(Cl)c1=O` [Compound 218], the “control value, Test A (blast on rice)” value in the assay on Magnaporthe grisea is given as “H (H shows the control value more than 50%)”. For the same molecule, the “control value, Test F” value in the assay with Phytophthora infestans was “L (L shows the control value of 50% or less)”. The “control value, Test H” value in assay [1] is “L (L shows the control value of 50% or less)”.

On to `CCn1c(-c2c(F)cccc2Cl)c(-n2cc(Cl)cn2)ccc1=O` [Compound 197], for which the “control value, Test A (blast on rice)” value in the assay on Magnaporthe grisea is listed as “H (H shows the control value more than 50%)”. Also, the “control value, Test F” value with Phytophthora infestans was “L (L shows the control value of 50% or less)”. Further, the “control value, Test H” value in assay [1] is given as “H (H shows the control value more than 50%)”.

Take `O=c1c(Cl)cc(-n2cnc(Cl)c2Cl)c(-c2ccccc2Cl)n1CC(F)F` [Compound 232]: the “control value, Test A (blast on rice)” value with Magnaporthe grisea is reported as “H (H shows the control value more than 50%)”. Moreover, in the assay on Phytophthora infestans, the “control value, Test F” value was “L (L shows the control value of 50% or less)”. The “control value, Test H” value in assay [1] is on record as “L (L shows the control value of 50% or less)”.

In the case of `CCn1c(-c2c(F)cccc2F)c(-c2ccsc2Cl)cc(Cl)c1=O` [Compound 298], in the assay on Magnaporthe grisea, the “control value, Test A (blast on rice)” value was “H (H shows the control value more than 50%)”. Moreover, the “control value, Test F” value in the assay on Phytophthora infestans was “L (L shows the control value of 50% or less)”. In addition, in assay [1], the “control value, Test H” value was “H (H shows the control value more than 50%)”.

For the molecule `CCn1c(-c2ccccc2OC)c(-n2cc(C)cn2)ccc1=O` [Compound 246], in the assay with Magnaporthe grisea, the “control value, Test A (blast on rice)” value is “L (L shows the control value of 50% or less)”. In addition, the “control value, Test F” value with Phytophthora infestans was “L (L shows the control value of 50% or less)”. Moreover, the “control value, Test H” value in assay [1] was “H (H shows the control value more than 50%)”.

For `CCn1c(-c2c(F)cc(F)cc2F)c(-n2cc(F)cn2)cc(Cl)c1=O` [Compound 192], the “control value, Test A (blast on rice)” value in the assay with Magnaporthe grisea was “H (H shows the control value more than 50%)”. Moreover, the “control value, Test F” value in the assay with Phytophthora infestans is “L (L shows the control value of 50% or less)”. In assay [1], the “control value, Test H” value is reported as “H (H shows the control value more than 50%)”.
